In the supplement of paper PMC8728848:
The list shows a part of the results.

Assays:
Assay in all cases: glycan array binding signal (z-score within array); higher = stronger binding
Details in all cases: glycan notation: IUPAC condensed, linker removed
[1] = biological target: GlcNAc(b1-3)[GlcNAc(b1-6)]GalNAc
Method in brief: (§1)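 Glycan array data came from 3228 arrays in the Consortium for Functional Glycomics database, and only arrays with an available protein sequence were kept. Glycan names were put into IUPAC-condensed notation, and columns mapping to the same glycan were averaged. The binding signal is a within-array Z-score, averaged across arrays of one protein sequence run at different concentrations or buffers and across linkers. A negative Z-score can be read as non-binding.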

[2] = biological target: GlcNAc(b1-3)[GlcNAc(b1-6)]GlcNAc(b1-4)GlcNAc
Method in brief: as §1

[3] = biological target: GlcNAc(b1-4)Gal(b1-4)GlcNAc
Method in brief: as §1

GlcNAc(b1-4)GlcNAc = biological target: GlcNAc(b1-4)GlcNAc
Method in brief: as §1

[4] = biological target: GlcNAc(b1-4)GlcNAc(b1-4)GlcNAc
Method in brief: as §1

[5] = biological target: GlcNAc(b1-4)GlcNAc(b1-4)GlcNAc(b1-4)GlcNAc(b1-4)GlcNAc
Method in brief: as §1

[6] = biological target: GlcNAc(b1-4)GlcNAc(b1-4)GlcNAc(b1-4)GlcNAc(b1-4)GlcNAc(b1-4)GlcNAc
Method in brief: as §1

[7] = biological target: GlcNAc(b1-4)[GlcNAc(b1-6)]GalNAc
Method in brief: as §1

[8] = biological target: GlcNAc(b1-6)Gal(b1-4)GlcNAc
Method in brief: as §1

GlcNAc(b1-6)GalNAc = biological target: GlcNAc(b1-6)GalNAc
Method in brief: as §1

GlcNAc3Prop(b1-4)GlcNAc = biological target: GlcNAc3Prop(b1-4)GlcNAc
Method in brief: as §1

[9] = biological target: GlcNAc6S(b1-3)Gal(b1-4)GlcNAc
Method in brief: as §1

Kdn(a2-3)Gal(b1-3)GalNAc = biological target: Kdn(a2-3)Gal(b1-3)GalNAc
Method in brief: as §1

Kdn(a2-3)Gal(b1-3)GlcNAc = biological target: Kdn(a2-3)Gal(b1-3)GlcNAc
Method in brief: as §1

Kdn(a2-3)Gal(b1-4)Glc = biological target: Kdn(a2-3)Gal(b1-4)Glc
Method in brief: as §1

Kdn(a2-3)Gal(b1-4)GlcNAc = biological target: Kdn(a2-3)Gal(b1-4)GlcNAc
Method in brief: as §1

[10] = biological target: Kdn(a2-3)Gal(b1-4)[Fuc(a1-3)]GlcNAc
Method in brief: as §1

Kdn(a2-6)Gal(b1-4)GlcNAc = biological target: Kdn(a2-6)Gal(b1-4)GlcNAc
Method in brief: as §1

[11] = biological target: Man(a1-2)Man(a1-2)Man(a1-3)Man
Method in brief: as §1

[12] = biological target: Man(a1-2)Man(a1-2)Man(a1-6)[Man(a1-3)]Man
Method in brief: as §1

Man(a1-2)Man(a1-3)Man = biological target: Man(a1-2)Man(a1-3)Man
Method in brief: as §1

[13] = biological target: Man(a1-2)Man(a1-3)[Man(a1-2)Man(a1-6)]Man
Method in brief: as §1

[14] = biological target: Man(a1-2)Man(a1-3)[Man(a1-2)Man(a1-6)]Man(a1-6)[Man(a1-2)Man(a1-2)Man(a1-3)]Man
Method in brief: as §1

[15] = biological target: Man(a1-2)Man(a1-3)[Man(a1-2)Man(a1-6)]Man(a1-6)[Man(a1-2)Man(a1-2)Man(a1-3)]Man(b1-4)GlcNAc(b1-4)GlcNAc
Method in brief: as §1

[16] = biological target: Man(a1-2)Man(a1-3)[Man(a1-6)]Man(a1-6)[Man(a1-2)Man(a1-3)]Man(b1-4)GlcNAc(b1-4)GlcNAc
Method in brief: as §1

[17] = biological target: Man(a1-2)Man(a1-6)[Man(a1-3)]Man(a1-6)[Man(a1-2)Man(a1-2)Man(a1-3)]Man
Method in brief: as §1

[18] = biological target: Man(a1-2)Man(a1-6)[Man(a1-3)]Man(a1-6)[Man(a1-2)Man(a1-2)Man(a1-3)]Man(b1-4)GlcNAc(b1-4)GlcNAc
Method in brief: as §1

Man(a1-3)[Man(a1-6)]Man = biological target: Man(a1-3)[Man(a1-6)]Man
Method in brief: as §1

[19] = biological target: Man(a1-3)[Man(a1-6)]Man(a1-6)[Man(a1-2)Man(a1-3)]Man(b1-4)GlcNAc(b1-4)GlcNAc
Method in brief: as §1

[20] = biological target: Man(a1-3)[Man(a1-6)]Man(a1-6)[Man(a1-3)]Man
Method in brief: as §1

[21] = biological target: Man(a1-3)[Man(a1-6)]Man(a1-6)[Man(a1-3)]Man(b1-4)GlcNAc(b1-4)GlcNAc
Method in brief: as §1

[22] = biological target: Man(a1-3)[Man(a1-6)]Man(b1-4)GlcNAc(b1-4)GlcNAc
Method in brief: as §1

Man(a1-6)Man = biological target: Man(a1-6)Man
Method in brief: as §1

Man(b1-4)GlcNAc = biological target: Man(b1-4)GlcNAc
Method in brief: as §1

Neu5Ac(a2-3)Gal = biological target: Neu5Ac(a2-3)Gal
Method in brief: as §1

[23] = biological target: Neu5Ac(a2-3)Gal(b1-3)GalNAc
Method in brief: as §1

[24] = biological target: Neu5Ac(a2-3)Gal(b1-3)GalNAc(b1-3)Gal(a1-4)Gal(b1-4)Glc
Method in brief: as §1

[25] = biological target: Neu5Ac(a2-3)Gal(b1-3)GalNAc(b1-3)Gal(b1-4)GlcNAc
Method in brief: as §1

B1: CLEC-1 (Homo sapiens), Q9NZH3 (protein)
chain: MQAKYSSTRDMLDDDGDTTMSLHSQASATTRHPEPRRTEHRAPSSTWRPVALTLLTLCLVLLIGLAAWGLLFFQYYQLSNTGQDTISQMEERLGNTSQELQSLQVQNIKLAGSLQHVAEKLCRELYNKAGAHRCSPCTEQWKWHGDNCYQFYKDSKSWEDCKYFCLSENSTMLKINKQEDLEFAASQSYSEFFYSYWTGLLRPDSGKAWLWMDGTPFTSELFHIIIDVTSPRSRDCVAILNGMIFSKDCKELKRCVCERRAGMVKPESLHVPPETLGEGD
[1]
  glycan array binding signal (z-score): -0.462
[2]
  glycan array binding signal (z-score): -0.115
[3]
  glycan array binding signal (z-score): -0.016
GlcNAc(b1-4)GlcNAc
  glycan array binding signal (z-score): -0.398
[4]
  glycan array binding signal (z-score): 1.49
[5]
  glycan array binding signal (z-score): -0.341
[6]
  glycan array binding signal (z-score): -0.01
[7]
  glycan array binding signal (z-score): -0.424
[8]
  glycan array binding signal (z-score): 0.492
GlcNAc(b1-6)GalNAc
  glycan array binding signal (z-score): -0.226
GlcNAc3Prop(b1-4)GlcNAc
  glycan array binding signal (z-score): -0.093
[9]
  glycan array binding signal (z-score): -0.134
Kdn(a2-3)Gal(b1-3)GalNAc
  glycan array binding signal (z-score): -0.214
Kdn(a2-3)Gal(b1-3)GlcNAc
  glycan array binding signal (z-score): -0.462
Kdn(a2-3)Gal(b1-4)Glc
  glycan array binding signal (z-score): 0.125
Kdn(a2-3)Gal(b1-4)GlcNAc
  glycan array binding signal (z-score): 0.004
[10]
  glycan array binding signal (z-score): 0.006
Kdn(a2-6)Gal(b1-4)GlcNAc
  glycan array binding signal (z-score): -0.53
[11]
  glycan array binding signal (z-score): -0.228
[12]
  glycan array binding signal (z-score): -0.399
Man(a1-2)Man(a1-3)Man
  glycan array binding signal (z-score): -0.141
[13]
  glycan array binding signal (z-score): -0.143
[14]
  glycan array binding signal (z-score): -0.596
[15]
  glycan array binding signal (z-score): -0.155
[16]
  glycan array binding signal (z-score): -0.278
[17]
  glycan array binding signal (z-score): -0.28
[18]
  glycan array binding signal (z-score): -0.285
Man(a1-3)[Man(a1-6)]Man
  glycan array binding signal (z-score): -0.319
[19]
  glycan array binding signal (z-score): 0.433
[20]
  glycan array binding signal (z-score): -0.502
[21]
  glycan array binding signal (z-score): -0.228
[22]
  glycan array binding signal (z-score): -0.543
Man(a1-6)Man
  glycan array binding signal (z-score): -0.495
Man(b1-4)GlcNAc
  glycan array binding signal (z-score): -0.245
Neu5Ac(a2-3)Gal
  glycan array binding signal (z-score): -0.021
[23]
  glycan array binding signal (z-score): -0.25
[24]
  glycan array binding signal (z-score): 1.29
[25]
  glycan array binding signal (z-score): -0.135
